Data on 44 compounds can be found in publication PMC4336329 (PLoS ONE, 2015).

Screen size: about 310,000 compounds; about 2,200 (0.71%) showed an effect of 50% or more. The effect is printed as a negative number. The list shows a part of the results.

The assay deals with human ether-à-go-go-related gene (hERG) potassium channel (human, UniProt Q12809). Kind of assay: primary screen, population patch clamp on CHO cells stably expressing hERG.
Chain of human ether-à-go-go-related gene (hERG) potassium channel (Q12809 whole entry, looked up): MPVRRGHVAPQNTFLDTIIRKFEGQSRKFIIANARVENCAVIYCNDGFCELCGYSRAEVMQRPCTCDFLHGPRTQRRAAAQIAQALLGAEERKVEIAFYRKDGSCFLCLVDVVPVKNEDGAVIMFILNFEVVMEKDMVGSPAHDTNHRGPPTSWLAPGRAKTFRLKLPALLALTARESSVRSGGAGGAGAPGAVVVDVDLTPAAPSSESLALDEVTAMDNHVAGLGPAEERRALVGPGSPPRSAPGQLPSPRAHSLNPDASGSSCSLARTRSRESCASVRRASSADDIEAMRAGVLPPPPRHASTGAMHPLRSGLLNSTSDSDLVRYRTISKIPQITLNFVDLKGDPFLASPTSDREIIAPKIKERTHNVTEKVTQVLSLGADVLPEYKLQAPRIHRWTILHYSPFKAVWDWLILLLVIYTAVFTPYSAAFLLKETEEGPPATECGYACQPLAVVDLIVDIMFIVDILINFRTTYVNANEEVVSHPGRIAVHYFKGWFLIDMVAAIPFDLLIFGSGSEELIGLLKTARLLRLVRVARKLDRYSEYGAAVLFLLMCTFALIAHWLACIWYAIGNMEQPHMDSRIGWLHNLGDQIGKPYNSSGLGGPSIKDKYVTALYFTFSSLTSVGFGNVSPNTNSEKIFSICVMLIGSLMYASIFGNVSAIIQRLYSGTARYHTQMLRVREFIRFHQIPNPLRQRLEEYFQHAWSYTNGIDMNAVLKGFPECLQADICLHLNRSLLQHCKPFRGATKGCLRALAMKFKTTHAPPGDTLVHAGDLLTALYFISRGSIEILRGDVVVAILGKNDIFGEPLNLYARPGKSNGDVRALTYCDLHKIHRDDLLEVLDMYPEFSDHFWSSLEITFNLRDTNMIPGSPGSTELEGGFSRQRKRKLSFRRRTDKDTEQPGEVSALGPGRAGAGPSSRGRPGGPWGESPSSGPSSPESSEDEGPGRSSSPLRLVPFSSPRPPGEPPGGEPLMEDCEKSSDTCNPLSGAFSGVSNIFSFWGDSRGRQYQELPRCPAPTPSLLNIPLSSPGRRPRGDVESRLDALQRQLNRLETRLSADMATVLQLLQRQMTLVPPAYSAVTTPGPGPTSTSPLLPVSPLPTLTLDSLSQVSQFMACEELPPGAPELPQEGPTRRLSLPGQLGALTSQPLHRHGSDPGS
In the case of `O=C(NCC1CCCO1)C(=O)NCC(c1ccco1)N1CCN(c2ccc(F)cc2)CC1` (centres unmarked), the “hERG current change (%, negative = inhibition) at 1uM” value was 1.42%. The result for `O=C1CSC(c2ccccc2F)N1` (centres unmarked) reads 8.38%.

Turning to `O=C(Nc1nccs1)c1ccc(N2CCOCC2)c([N+](=O)[O-])c1`, the “hERG current change (%, negative = inhibition) at 1uM” value stood at 9.81%.

On to `CCOC(=O)C1(Cc2cccc(OC)c2)CCCN(C(=O)CNC(C)=O)C1` (centres unmarked), for which the “hERG current change (%, negative = inhibition) at 1uM” value amounted to 15.1%. For `COc1cccc(CN2CCCC(C(=O)N3CCCCC3)C2)c1.O=C(O)C(=O)O` (centres unmarked) the value was 14.1%; for `CC(C)c1ccc(NC2CCCN(C(=O)C3=NN(C)C(=O)CC3)C2)cc1` (centres unmarked), 13.2%; for `CC(=O)Nc1ccc(NC(=O)C2C3C=CC(C3)C2C(=O)O)cc1` (centres unmarked), 11.3%.

For `CC(C)CC(=O)Nc1nc(=S)ss1`, the “hERG current change (%, negative = inhibition) at 1uM” value turned out to be 14.2%.

As to `CCCCCC(=O)N/N=C/c1ccc([N+](=O)[O-])o1`, the “hERG current change (%, negative = inhibition) at 1uM” value was 0.253%.

Consider `COc1ccc(-c2nc3cc([N+](=O)[O-])ccc3o2)cc1`, for which the “hERG current change (%, negative = inhibition) at 1uM” value came out at 13.4%. For `COc1ccc2c(c1)cc(C(O)c1ccccn1)n2S(=O)(=O)c1ccccc1` (centres unmarked) the value was 12.9%; for `O=C1CN(C(=O)/C=C/c2cccc(Cl)c2)c2ccccc2N1`, 7.62%; for `O=C(O)C1CCCN1S(=O)(=O)c1ccccc1` (centres unmarked), -9.03%. For `COc1ccc(CCNc2nc(C)cc(C)c2C#N)cc1OC` the value was 18.9%; for `COc1cccc(CCC(=O)O)c1OC`, 15%. For `COc1ccc(/C=C/C(=O)O)cc1S(=O)(=O)N1CCCCC1` the value was 7.16%; for `COc1ccc(CNCC(=O)Nc2cc(C)nn2-c2nc(C)cc(C)n2)cc1OC`, -7.66%.

Regarding `N#Cc1nc(-c2ccc(F)cc2)oc1N1CCN(C(=O)c2ccco2)CC1`, the “hERG current change (%, negative = inhibition) at 1uM” value is listed as -24.9%.

For the compound `O=C(COC(=O)c1cccs1)NC1CCCC1`, the “hERG current change (%, negative = inhibition) at 1uM” value came out at 16%. The result for `CC(C)c1nc(-c2ccccc2)c(-c2ccccc2)[nH]1` reads 4.94%; that for `CC1CC(C)CN(CCCNC(=O)CN2C(=O)CSc3ccc(S(=O)(=O)N4CCOCC4)cc32)C1` (centres unmarked), 15.7%. For `O=C(CN1C(=O)NC2(CCCCC2)C1=O)NCCC1=CCCCC1` the value was 14.5%; for `O=C(NCc1cccs1)c1cnc2ccccn2c1=O`, -5.4%. Turning to `NC(N)=N/N=C/c1ccc(Cl)cc1Cl`, the “hERG current change (%, negative = inhibition) at 1uM” value was 10.2%. Consider `C=CCn1c(SC/C=C/c2ccccc2)nnc1-c1sc(N)nc1C`, for which the “hERG current change (%, negative = inhibition) at 1uM” value is on record as 5.53%. For `CCCN1CCC(=O)N([C@H](CSc2ccc(Br)cc2)Cc2ccccc2)CC1` the value was -30.7%; for `CC(=O)N1CCN(C(=S)Nc2ccc(Oc3ccccc3)cc2)CC1`, 4.02%. The result for `CCCc1cc(NCc2ccccn2)n2c(nc3ccccc32)c1C#N` reads 11.1%; that for `COc1ccccc1/C=N/NC(=O)c1ccc2c(c1)OCO2`, 14.1%; that for `Cc1ccc(NC(=O)c2cccc(Oc3ccc([N+](=O)[O-])cc3)c2)c(C(=O)O)c1`, 10.6%. The result for `Cc1nc(C(C)N(C)Cc2nc(-c3ccc4c(c3)OCO4)no2)c(C)s1` (centres unmarked) reads 12.2%; that for `Cc1cc(NC(=O)CCl)no1`, 14.7%. In the case of `CCCCN1C(=O)C(=O)N(c2ccccc2)C1=S`, the “hERG current change (%, negative = inhibition) at 1uM” value came out at 13.3%. For `CC(=O)OCC1=C(C(=O)O)N2C(=O)C(NC(=O)CCn3nc(C(F)(F)F)c(Br)c3C3CC3)C2SC1` (centres unmarked) the value was 7.08%; for `O=C(COc1ccc(-n2cnnn2)cc1)N1CCN(c2ccc(F)cc2)CC1`, -60.3%; for `Cc1c(O)ccc(/C=N/Nc2ncccc2[N+](=O)[O-])c1O`, 10%.

Regarding `O=C(O/N=C1\CCS(=O)(=O)c2sccc21)c1c(F)cccc1F`, the “hERG current change (%, negative = inhibition) at 1uM” value turned out to be 5.56%. The result for `NC(=O)c1ccc(Cl)c2ccccc12` reads 17.9%. The result for `COc1cc(NC(=O)c2ccc3nsnc3c2)cc(OC)c1OC` reads 11.8%; that for `O=C(NC(=S)NCc1ccccc1)c1cccnc1`, 6.35%. As for `Cc1onc(-c2ccccc2)c1C(=O)N(Cc1ccccc1)C(C)C`, the “hERG current change (%, negative = inhibition) at 1uM” value is recorded as 13.4%. For `COc1ccc(Cl)cc1/C=C/c1ccc2cccc(O)c2n1` the value was 9.65%; for `CC(=O)Nc1ccc(S(=O)(=O)N(Cc2cccnc2)Cc2cc3ccc(C)cc3[nH]c2=O)cc1`, 10.7%.

`COc1ccccc1NC(=O)Cn1cc(C(=O)C2CC2)c2ccccc21`: the “hERG current change (%, negative = inhibition) at 1uM” value is on record as 1.55%.
